Patent publication US6949366 (Amgen, dated 2005)

Legend:
[1] = target: T1, human elk ligand (human, UniProt P98172 28-346); experiment: indirect Scatchard binding: hek/Fc titrated on CV1-EBNA-1 cells expressing elk-L, detected with 125I mouse anti-human IgG; biphasic, second component
T1 construct: whole, on cells
T1 sequence (looked up): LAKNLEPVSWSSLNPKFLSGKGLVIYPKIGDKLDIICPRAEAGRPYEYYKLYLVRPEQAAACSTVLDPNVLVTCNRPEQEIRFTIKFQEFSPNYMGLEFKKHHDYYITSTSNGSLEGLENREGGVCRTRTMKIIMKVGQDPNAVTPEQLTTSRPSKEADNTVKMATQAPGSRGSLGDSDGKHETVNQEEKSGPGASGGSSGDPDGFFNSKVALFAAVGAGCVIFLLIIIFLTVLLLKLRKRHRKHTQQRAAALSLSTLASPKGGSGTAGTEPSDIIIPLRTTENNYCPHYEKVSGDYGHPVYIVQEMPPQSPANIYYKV

[2] = target: T1, human elk ligand; experiment: indirect Scatchard binding: hek/Fc titrated on CV1-EBNA-1 cells expressing elk-L, detected with 125I mouse anti-human IgG; biphasic, first component
[3] = target: T2, human hek ligand encoded by clone A2 (human, UniProt P52797 20-213, GPI anchor at the C-terminus after cleavage (likely on Ser 194 in the filing's numbering; site not determined)); experiment: indirect Scatchard binding: hek/Fc titrated on CV1-EBNA-1 cells expressing hek-L A2, detected with 125I mouse anti-human IgG
T2 construct: Expressed from the full-length clone A2 cDNA in pDC410 on CV1-EBNA-1 cells and held on the membrane by a GPI anchor; also called hek-L A2; hek ligand A2
T2 sequence: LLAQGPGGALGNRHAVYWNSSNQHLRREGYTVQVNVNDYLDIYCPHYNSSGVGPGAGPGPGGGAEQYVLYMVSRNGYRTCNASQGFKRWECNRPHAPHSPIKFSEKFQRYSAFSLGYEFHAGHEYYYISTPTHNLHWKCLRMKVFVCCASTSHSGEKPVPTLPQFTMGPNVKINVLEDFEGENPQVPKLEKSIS

[4] = target: T3, human hek ligand encoded by clone C6 (human, UniProt P52798 23-170, GPI anchor at the C-terminus after cleavage (likely on Ser 148 in the filing's numbering; site not determined)); experiment: indirect Scatchard binding: hek/Fc titrated on CV1-EBNA-1 cells expressing hek-L C6, detected with 125I mouse anti-human IgG
T3 construct: Expressed from the full-length clone C6 cDNA in pDC410 on CV1-EBNA-1 cells and held on the membrane by a GPI anchor; also called hek-L C6; hek ligand C6
T3 sequence: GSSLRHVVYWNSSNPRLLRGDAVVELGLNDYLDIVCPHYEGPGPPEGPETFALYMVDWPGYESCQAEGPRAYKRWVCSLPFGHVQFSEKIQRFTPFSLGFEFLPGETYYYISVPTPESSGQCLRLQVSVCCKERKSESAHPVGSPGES

[5] = target: T4, human B61 (human, UniProt P20827 19-182); experiment: indirect Scatchard binding: hek/Fc titrated on CV1-EBNA-1 cells expressing B61, detected with 125I mouse anti-human IgG
T4 construct: whole, on cells
T4 sequence (looked up): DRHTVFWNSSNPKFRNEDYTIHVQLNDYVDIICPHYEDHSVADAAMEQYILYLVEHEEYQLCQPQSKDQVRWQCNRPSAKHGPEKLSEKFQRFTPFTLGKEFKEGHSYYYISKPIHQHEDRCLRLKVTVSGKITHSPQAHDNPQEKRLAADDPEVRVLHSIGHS

Ka [1]: 2.9e+06 M⁻¹
Ka [2]: 2.3e+07 M⁻¹
Ka [3]: 2e+08 M⁻¹
Ka [4]: 2e+08 M⁻¹
Ka [5]: 5.5e+07 M⁻¹
B1: soluble human hek/Fc fusion protein (Fc fusion)
chain: ELIPQPSNEVNLLDSKTIQGELGWISYPSHGWEEISGVDEHYTPIRTYQVCNVMDHSQNNWLRTNWVPRNSAQKIYVELKFTLRDCNSIPLVLGTCKETFNLYYMESDDDHGVKFREHQFTKIDTIAADESFTQMDLGDRILKLNTEIREVGPVNKKGFYLAFQDVGACVALVSVRVYFKKCPFTVKNLAMFPDTVPMDSQSLVEVRGSCVNNSKEEDPPRMYCSTEGEWLVPIGKCSCNAGYEERGFMCQACRPGFYKALDGNMKCAKCPPHSSTQEDGSMNCRCENNYFRADKDPPSMACTRPPSSPRNVISNINETSVILDWSWPLDTGGRKDVTFNIICKKCGWNIKQCEPCSPNVRFLPRQFGLTNTTVTVTDLLAHTNYTFEIDAVNGVSELSSPPRQFAAVSITTNQAAPSPVLTIKKDRTSRNSISLSWQEPEHPNGIILDYEVKYYEKQEQETSYTILRARGTNVTISSLKPDTIYVFQIRARTAAGYGTNSRKFEFETSPDSFSISGESSQ[human IgG1 Fc not listed]
